Assay results from the antibiotic and cytotoxicity screens of Wong et al. (2023).
This is one part of the list.

Columns and labels:
HSkMC = human skeletal muscle cells; test: cytotoxicity call (relative viability < 0.9); conditions: 10 µM
HepG2 = test: cytotoxicity call (relative viability < 0.9); conditions: 10 µM
S. aureus RN4220 = test: growth inhibition call (relative growth <= 0.2); conditions: 50 µM

SMILES | cytotoxicity call (HSkMC) | cytotoxicity call (HepG2) | growth inhibition call (S. aureus RN4220)
C[C@@H]1CCCCO[C@H](CN(C)S(=O)(=O)c2cn(C)cn2)[C@@H](C)CN([C@@H](C)CO)C(=O)c2cc(N(C)C)ccc2O1 | inactive | inactive | inactive
C[C@@H]1CN([C@@H](C)CO)C(=O)CCCn2cc(nn2)CO[C@@H]1CN(C)S(=O)(=O)c1ccccc1C#N | inactive | inactive | inactive
COc1ccc(NC(=O)Nc2cccc3c2O[C@@H](CN(C)Cc2ccc(-c4ccccc4)cc2)[C@H](C)CN([C@H](C)CO)C3=O)cc1 | inactive | active | inactive
C[C@@H]1CCCCO[C@@H](CN(C)Cc2ccc(C(F)(F)F)cc2)[C@@H](C)CN([C@H](C)CO)C(=O)c2cc(NC(=O)NC3CCCCC3)ccc2O1 | inactive | inactive | inactive
COc1ccc(NC(=O)N(C)C[C@H]2Oc3ccc(NC(=O)CCCCCC(=O)Nc4ccccc4N)cc3CC(=O)N([C@H](C)CO)C[C@H]2C)cc1 | inactive | inactive | inactive
C[C@@H]1CN([C@H](C)CO)C(=O)c2cc(NC(=O)Nc3ccccc3)ccc2O[C@@H](C)CCCCO[C@@H]1CN(C)S(=O)(=O)c1ccc(Cl)cc1 | inactive | inactive | inactive
CCOn1c(=O)c(=O)n(OC)c2ccccc21 | inactive | inactive | inactive
C[C@@H]1CCCCO[C@H](CN(C)C(=O)Nc2ccc(C(F)(F)F)cc2)[C@@H](C)CN([C@@H](C)CO)C(=O)c2cc(NC(=O)C3CCCCC3)ccc2O1 | inactive | inactive | inactive
COc1ccc(CN(C)C[C@H]2OCCCC[C@@H](C)Oc3ccc(NC(=O)NC4CCCCC4)cc3C(=O)N([C@H](C)CO)C[C@H]2C)cc1 | inactive | active | inactive
Cc1onc(-c2ccccc2)c1C#N | inactive | inactive | inactive
COCC#Cc1ccc2c(c1)O[C@H](CN(C)C(=O)c1ccccc1F)[C@@H](C)CN([C@@H](C)CO)S2(=O)=O | inactive | inactive | inactive
COc1cccc(NC(=O)C[C@H]2CC[C@@H]3[C@H](COc4ccc(NC(=O)C5CCOCC5)cc4C(=O)N3C)O2)c1 | inactive | inactive | inactive
C[C@@H]1CN([C@H](C)CO)C(=O)c2cc(NC(=O)C3CCCCC3)ccc2O[C@@H](C)CCCCO[C@H]1CN(C)Cc1ccc(Cl)c(Cl)c1 | inactive | active | inactive
C[C@H](CO)N1C[C@H](C)[C@@H](CN(C)Cc2ccc(C(=O)O)cc2)OCCCC[C@H](C)Oc2ccc(NS(=O)(=O)c3ccccc3)cc2C1=O | inactive | inactive | inactive
COc1ccc(S(=O)(=O)Nc2cccc3c2O[C@H](CN(C)CC2CC2)[C@H](C)CN([C@@H](C)CO)C3=O)cc1 | inactive | inactive | inactive
COC(=O)CN1C(=O)COc2ccc(C)cc21 | inactive | inactive | inactive
O=C(CCCCCCCC(=O)NCCO)NCCO | inactive | inactive | inactive
CC(=O)N(C)C[C@@H]1Oc2ncc(C#CC(C)(C)O)cc2C(=O)N([C@@H](C)CO)C[C@@H]1C | active | inactive | inactive
C[C@H]1CN([C@@H](C)CO)C(=O)Cc2cc(NC(=O)C3CCCCC3)ccc2O[C@@H]1CN(C)Cc1ccc(C(=O)Nc2ccccc2N)cc1 | inactive | inactive | inactive
COc1ccc(NC(=O)Nc2ccc3c(c2)C(=O)N([C@H](C)CO)C[C@H](C)[C@H](CN(C)S(=O)(=O)c2c(C)noc2C)OCCCC[C@H](C)O3)cc1 | inactive | inactive | inactive
Cc1noc(C)c1S(=O)(=O)N(C)C[C@H]1Oc2c(NC(=O)C3CCOCC3)cccc2C(=O)N([C@@H](C)CO)C[C@H]1C | inactive | inactive | inactive
CSC1=NN(C)c2cnn(C)c(=O)c2S1 | inactive | inactive | inactive
C[C@@H]1CCCCO[C@@H](CN(C)CC2CC2)[C@@H](C)CN([C@H](C)CO)C(=O)c2cc(NC(=O)NC3CCCCC3)ccc2O1 | inactive | inactive | inactive
Cc1noc(C)c1S(=O)(=O)Nc1ccc2c(c1)C(=O)N([C@@H](C)CO)C[C@@H](C)[C@@H](CN(C)C(=O)Nc1ccc3c(c1)OCO3)O2 | inactive | inactive | inactive
CCC[C@@H](O)C#Cc1cnc2c(c1)C(=O)N([C@H](C)CO)C[C@H](C)[C@H](CN(C)C(=O)Nc1ccc(F)cc1)O2 | inactive | inactive | inactive
C[C@H](CO)N1C[C@H](C)[C@H](CN(C)S(=O)(=O)c2cccc(F)c2)Oc2cc(Br)ccc2S1(=O)=O | inactive | inactive | inactive
C[C@H]1CN([C@@H](C)CO)C(=O)c2cc(-c3cncnc3)cnc2O[C@@H]1CN(C)C(=O)Nc1ccc2c(c1)OCO2 | inactive | inactive | inactive
O=C(CCCCCNC(=O)OCc1ccc(CO[C@H]2C[C@@H](c3ccccc3)C=C(C(=O)N3CCN(Cc4ccccc4)CC3)O2)cc1)NO | inactive | inactive | inactive

SMILES | cytotoxicity call (HSkMC) | cytotoxicity call (HepG2) | growth inhibition call (S. aureus RN4220)
CCOC(=O)c1cc2c(c(-c3cccc(C#CCN(C)C)c3)n1)[C@@H](CCO[Si](C)(C)C(C)(C)C)N([S@](=O)C(C)(C)C)C2 | inactive | active | inactive
C=CCOC(=O)[C@@H]1[C@H]2C(=O)O[C@H](c3ccccc3)[C@H](c3ccccc3)N2[C@H](c2ccc(OCCOC(=O)[C@H]3C[C@H]4C(=O)N[C@@H](CC(C)C)C(=O)N4[C@H]3c3cccc(OCCO)c3)cc2)[C@@]12C(=O)Nc1ccc(I)cc12 | inactive | inactive | inactive
CO[C@H]1CN(C)C(=O)c2cc(NC(=O)Nc3cccc(F)c3)ccc2OC[C@H](C)N(C(=O)Nc2c(C)noc2C)C[C@H]1C | inactive | inactive | inactive
Cc1noc(C)c1S(=O)(=O)Nc1cccc2c1O[C@@H](CN(C)Cc1ccc(C(=O)O)cc1)[C@@H](C)CN([C@@H](C)CO)C2=O | inactive | inactive | inactive
C[C@@H]1CN([C@@H](C)CO)C(=O)c2cc(NS(=O)(=O)c3ccccc3)ccc2O[C@@H](C)CCCCO[C@@H]1CN(C)Cc1ccc(C(F)(F)F)cc1 | inactive | inactive | inactive
C[C@H](CO)N1C[C@H](C)[C@@H](CN(C)S(=O)(=O)c2ccc(Cl)cc2)OCCCC[C@H](C)Oc2ccc(NC(=O)NC3CCCCC3)cc2C1=O | inactive | active | inactive
CC(=O)N1CCNCC1 | inactive | inactive | inactive
C[C@@H]1CCCCO[C@@H](CN(C)Cc2ccc(C(F)(F)F)cc2)[C@@H](C)CN([C@@H](C)CO)C(=O)c2cc(NC(=O)c3ccncc3)ccc2O1 | inactive | inactive | inactive
C[C@H](CO)N1C[C@H](C)[C@H](CN(C)CC2CCOCC2)Oc2ncc(C#Cc3ccc(F)cc3)cc2C1=O | inactive | inactive | inactive
COc1ccc(S(=O)(=O)Nc2ccc3c(c2)C(=O)N([C@@H](C)CO)C[C@H](C)[C@@H](CN(C)Cc2ccc(Oc4ccccc4)cc2)O3)cc1 | inactive | inactive | inactive
COc1ccc2c(c1)/C(=N\O)C(=O)N2 | inactive | inactive | inactive
COCC#Cc1ccc2c(c1)O[C@@H](CN(C)C(=O)C1CCCCC1)[C@H](C)CN([C@@H](C)CO)S2(=O)=O | inactive | inactive | inactive
O[C@@H]1Cc2ccccc2[C@H]1O | inactive | inactive | inactive
COc1ccccc1CNC(=O)C[C@H]1CC[C@@H]2[C@H](COC[C@@H](O)CN2C(=O)Nc2ccc(F)cc2)O1 | inactive | inactive | inactive
CC1(C)C=Cc2c(c3c(c4c(=O)c(-c5ccc(O)c(O)c5)coc24)OC(C)(C)CC3)O1 | inactive | active | inactive
COc1ccc(NC(=O)Nc2ccc3c(c2)C(=O)N([C@H](C)CO)C[C@@H](C)[C@H](CN(C)Cc2ccc(C(=O)O)cc2)OCCCC[C@H](C)O3)cc1 | inactive | inactive | inactive
COc1ccc(NC(=O)N(C)C[C@@H]2OCCCC[C@H](C)Oc3ccc(NS(=O)(=O)c4ccc(F)cc4)cc3C(=O)N([C@H](C)CO)C[C@H]2C)cc1 | inactive | inactive | inactive
C[C@H]1CN([C@@H](C)CO)C(=O)c2cc(C3=CCCCC3)cnc2O[C@H]1CN(C)C(=O)CN1CCOCC1 | inactive | inactive | inactive
O=C(O)[C@H]1C[C@H]2C(=O)NCC(=O)N2[C@H]1c1ccc(O)cc1 | inactive | inactive | inactive
C[C@@H]1CN([C@H](C)CO)C(=O)c2cc(NC(=O)CCC(F)(F)F)ccc2O[C@@H](C)CCCCO[C@H]1CN(C)C(=O)c1ccccc1 | inactive | inactive | inactive
COc1ccc(NC(=O)N(C)C[C@@H]2Oc3ccc(NC(=O)CCN4CCOCC4)cc3CC(=O)N([C@@H](C)CO)C[C@H]2C)cc1 | inactive | inactive | inactive
CN1C(=O)c2cc(NC(=O)c3cnccn3)ccc2OC[C@H]2O[C@@H](CC(=O)NCC3CCCCC3)CC[C@H]21 | inactive | inactive | inactive
CNC[C@H]1Oc2c(NS(=O)(=O)c3cn(C)cn3)cccc2C(=O)N([C@@H](C)CO)C[C@H]1C | inactive | inactive | inactive
C[C@@H]1CN([C@H](C)CO)C(=O)Cc2cc(NS(=O)(=O)c3ccc(F)cc3)ccc2O[C@@H]1CN(C)Cc1ccc(Cl)c(Cl)c1 | active | active | inactive
CNC[C@@H](O)c1ccc(O)c(O)c1 | inactive | inactive | inactive
C[C@H](CO)N1C[C@H](C)[C@H](CN(C)S(=O)(=O)c2ccccc2)Oc2ccc(NS(C)(=O)=O)cc2C1=O | inactive | inactive | inactive
Cc1noc(C)c1S(=O)(=O)Nc1ccc2c(c1)C(=O)N([C@H](C)CO)C[C@H](C)[C@H](CN(C)S(=O)(=O)c1cccs1)O2 | inactive | inactive | inactive
